Sequences with one replicate were seen in a single cluster, so their values are uncertain.
system: ATP; assay: switch fluorescence ratio, 500 uM ATP over buffer (Cy3 cluster intensity, sum of 5 cycles each) (fold (ratio)); higher = stronger signal-on switching upon ATP binding; sequences stand for … in TCGTCGGCAGCGTCAGATGTGTATAAGAGACAGTTTTTTTTTTTTTTTTTTTTTTTTT…TC; settings: aptamer strand: ATP DNA aptamer (quencher-CACCTGGGGGAGTATTGCGGAGGAAGG + anchor), 100 nM annealed; ATP concentration: 500 uM; one replicate
Outline: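 Cy3-labelled switching-strand clusters on a modified Illumina MiSeq flow-cell were annealed to 100 nM quencher-labelled ATP aptamer and imaged first in selection buffer, then after 15 min with 500 uM ATP at 22 °C. NaOH stripping and re-annealing separated each of five buffer/ATP cycles, and clusters outside 100-1000 RFU were excluded. The fluorescence ratio sums target-cycle Cy3 intensity over buffer-cycle Cy3 intensity per cluster and averages it per switch-domain sequence.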
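Note: ATP exposure 15 min at 22 °C before imaging.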

Sequence	switch fluorescence ratio
ACTTAAGGT	1.03
ACTTAAGTGC	1
ACTTAATCA	0.963
ACTTACGACA	1.29
ACTTAGACAG	1
ACTTAGAGGT	1.03
ACTTAGGGCA	1.08
ACTTAGGTGG	1
ACTTAGTTAT	0.98
ACTTAGTTGT	1.07
ACTTATGTAA	1
ACTTATTTTC	1.02
ACTTCAAACT	1.1
ACTTCAATT	0.983
ACTTCCGGCT	1.08
ACTTCCGTGG	1.23
ACTTCGATCG	1.06
ACTTCTATAC	1.63
ACTTCTATC	1.01
ACTTCTCCTG	1.11
ACTTCTTTAC	1.13
ACTTGAGCTA	1.08
ACTTGCATGG	1.29
ACTTGCTGTA	0.958
ACTTGGCTT	1.02
ACTTGGTATA	1.04

Sequence	switch fluorescence ratio
ACTTGGTGCT	1.02
ACTTGGTTGA	1.03
ACTTGTACGG	1.23
ACTTGTAGCA	1.02
ACTTGTCTAG	1.03
ACTTGTGTTC	0.957
ACTTTAAATA	0.995
ACTTTAACA	1.09
ACTTTAGGAT	1.02
ACTTTGAAAC	1.04
ACTTTGAGGA	0.976
ACTTTTCACT	1.16
ACTTTTCGTG	0.997
AGAAAACGTT	1.02
AGAAAAGTTG	0.976
AGAAACCAGA	1.06
AGAAACGTTC	1.07
AGAAAGGAGA	0.989
AGAAATATCC	1.07
AGAACACGCG	1.04
AGAACAGCAG	1.02
AGAACCGGAG	1.12
AGAACGCAAG	1.11
AGAACGTAAT	1.09
AGAACGTACC	1.7
AGAACGTACT	1.42

Sequence	switch fluorescence ratio
AGAACTCAGC	1.06
AGAACTCGCT	1
AGAACTGCAA	1.58
AGAACTTACA	1.21
AGAACTTGGG	0.991
AGAAGAGACA	1.02
AGAAGCGCC	0.995
AGAAGCGTAA	0.998
AGAAGCTAAC	1.31
AGAAGCTATC	1.26
AGAAGGAGAT	0.981
AGAAGGAGTC	1.1
AGAAGGCAGA	1.01
AGAAGGGCCT	0.976
AGAAGGTTGA	1
AGAAGTAAAT	1
AGAAGTTCTT	1.01
AGAATAGCTT	1.01
AGAATCAAGG	0.993
AGAATCGCCA	0.944
AGAATGGGAC	1.01
AGAATTCTTA	0.983
AGAATTTCAG	1
AGAATTTGCT	0.943
AGACAAGGAC	1.07
AGACAATGGG	0.932

Sequence	switch fluorescence ratio
AGACACTTTC	1.03
AGACAGAACT	1.05
AGACAGCCCT	1.1
AGACAGTGT	0.99
AGACAGTGTT	0.998
AGACAGTTGT	1.02
AGACAGTTTA	1
AGACATTGAA	1.01
AGACATTTTA	0.984
AGACCAGCCG	0.986
AGACCATCGA	0.951
AGACCTCCT	1.22
AGACCTGATG	1
AGACGAAGGA	1.06
AGACGATCAT	1.07
AGACGGATCT	0.964
AGACGTACTT	1.13
AGACGTGCC	0.977
AGACTAAGGT	0.932
AGACTACGT	0.978
AGACTAGGAG	0.998
AGACTGTCAA	0.992
AGACTGTGAT	1.04
